pIC50: −log10 of the molar value. IC50 is the fitted dose that halves viability relative to control wells, and lower means more sensitive; where the fit passes the top or lowest dose, that dose stands as a limit. AUC is the area under the same curve over the 256-fold range up to the top dose, as a fraction; the more sensitive the line, the further below 1. For some of these results: A top dose marked as inferred was calculated from the reported fits. For some of these results: Drugs with an entry number were screened twice under separate entries, and the two screens often disagree.
Experiments:
Experiment in all cases: Viability of human cancer cell lines after 72 h of drug (GDSC screen)
TW-37 = compound: CC(C)c1ccccc1Cc1cc(C(=O)Nc2ccc(S(=O)(=O)c3ccccc3C(C)(C)C)cc2)c(O)c(O)c1O [TW-37]; conditions: top dose 5 µM
Description: (§1)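 Human cancer cell lines in 384-well plates, medium with 10% serum, drug for 72 h over a 256-fold dose range (nine 2-fold or five 4-fold steps up to the top dose). Adherent lines were fixed and stained with the nucleic acid dye Syto60, suspension lines read with resazurin; signal relative to control wells, capped at 0 and 100%. One two-parameter sigmoid per drug and line, fitted in a mixed model over all curves with the slope shared within a line.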

Bicalutamide = compound: CC(O)(CS(=O)(=O)c1ccc(F)cc1)C(=O)Nc1ccc(C#N)c(C(F)(F)F)c1 [Bicalutamide]; conditions: top dose 10 µM; screen: GDSC drug entry 1502; top dose inferred
Description: as §1

KIN001-270 = compound: Cc1ccc(Nc2cc(-c3cccc(N4C(=O)c5ccccc5C4=O)c3)ncn2)cc1NS(C)(=O)=O [KIN001-270]; conditions: top dose 20 µM; top dose inferred
Description: as §1

Nilotinib = compound: Cc1cn(-c2cc(NC(=O)c3ccc(C)c(Nc4nccc(-c5cccnc5)n4)c3)cc(C(F)(F)F)c2)cn1 [Nilotinib]; conditions: top dose 2 µM
Description: as §1

T0901317 = compound: O=S(=O)(c1ccccc1)N(CC(F)(F)F)c1ccc(C(O)(C(F)(F)F)C(F)(F)F)cc1 [T0901317]; conditions: top dose 10.24 µM; top dose inferred
Description: as §1

MP470 = compound: S=C(NCc1ccc2c(c1)OCO2)N1CCN(c2ncnc3c2oc2ccccc23)CC1 [MP470]; conditions: top dose 20 µM; top dose inferred
Description: as §1

Cell Line | AUC (TW-37) | pIC50 (TW-37) | AUC (Bicalutamide) | pIC50 (Bicalutamide) | AUC (KIN001-270) | pIC50 (KIN001-270) | AUC (Nilotinib) | pIC50 (Nilotinib) | AUC (T0901317) | pIC50 (T0901317) | AUC (MP470) | pIC50 (MP470)
ESO26 (oesophagus, adherent) | 0.698 | 5.96 | 0.988 | < 5.00 | 0.987 | < 4.70 | 0.989 | < 5.70 | 0.987 | < 4.99 | 0.934 | < 4.70
OACp4C (oesophagus, adherent) | 0.599 | 6.21 | 0.97 | < 5.00 | 0.975 | < 4.70 | 0.958 | < 5.70 | 0.982 | < 4.99 | 0.927 | < 4.70
RCC-JW (kidney, adherent) | 0.448 | 6.65 | 0.984 | < 5.00 | 0.964 | < 4.70 | 0.986 | < 5.70 | 0.986 | < 4.99 | 0.498 | 5.91
OVK-18 (ovary, adherent) | 0.315 | 7.05 | 0.976 | < 5.00 | 0.961 | < 4.70 | 0.96 | < 5.70 | 0.966 | < 4.99 | 0.932 | < 4.70
DOV13 (ovary, adherent) | 0.535 | 6.40 | 0.943 | < 5.00 | 0.967 | < 4.70 | 0.984 | < 5.70 | 0.969 | < 4.99 | 0.967 | < 4.70
OVCA420 (ovary, adherent) | 0.727 | 5.76 | 0.934 | < 5.00 | 0.975 | < 4.70 | 0.975 | < 5.70 | 0.98 | < 4.99 | 0.941 | < 4.70
KMS-11 (myeloma, suspension) | 0.647 | 6.13 | 0.986 | < 5.00 | 0.938 | < 4.70 | 0.99 | < 5.70 | 0.97 | < 4.99 | 0.977 | < 4.70
D-566MG (glioma, adherent) | 0.347 | 6.93 |  |  | 0.948 | < 4.70 | 0.948 | < 5.70 | 0.958 | < 4.99 | 0.966 | < 4.70
RCC-JF (kidney, adherent) | 0.481 | 6.56 | 0.977 | < 5.00 | 0.972 | < 4.70 | 0.979 | < 5.70 | 0.977 | < 4.99 | 0.754 | 5.13
NCI-H630 (large intestine, adherent) | 0.579 | 6.28 | 0.987 | < 5.00 | 0.984 | < 4.70 | 0.948 | < 5.70 | 0.974 | < 4.99 | 0.959 | < 4.70
SK-MG-1 (glioma, adherent) | 0.5 | 6.50 | 0.986 | < 5.00 | 0.974 | < 4.70 | 0.944 | < 5.70 | 0.987 | < 4.99 | 0.974 | < 4.70
D-423MG (glioma, adherent) | 0.585 | 6.25 | 0.972 | < 5.00 | 0.884 | < 4.70 | 0.907 | < 5.70 | 0.913 | < 4.99 | 0.751 | 5.10
COR-L321 (lung, suspension) | 0.863 | 5.37 | 0.988 | < 5.00 | 0.973 | < 4.70 | 0.983 | < 5.70 | 0.979 | < 4.99 | 0.945 | < 4.70
RCC-AB (kidney, adherent) | 0.57 | 6.29 | 0.91 | < 5.00 | 0.923 | < 4.70 | 0.979 | < 5.70 | 0.976 | < 4.99 | 0.173 | 7.05
PEO1 (ovary, adherent) | 0.45 | 6.65 | 0.982 | < 5.00 | 0.973 | < 4.70 | 0.987 | < 5.70 | 0.96 | < 4.99 | 0.931 | < 4.70
KYAE-1 (oesophagus, suspension) | 0.859 | 5.31 | 0.968 | < 5.00 | 0.967 | < 4.70 | 0.968 | < 5.70 | 0.958 | < 4.99 | 0.89 | < 4.70
CADO-ES1 (Ewing sarcoma, suspension) | 0.821 | 5.53 | 0.986 | < 5.00 | 0.962 | < 4.70 | 0.981 | < 5.70 | 0.972 | < 4.99 | 0.883 | < 4.70
EMC-BAC-1 (lung adenocarcinoma, adherent) | 0.813 | 5.50 | 0.982 | < 5.00 | 0.961 | < 4.70 | 0.958 | < 5.70 | 0.958 | < 4.99 | 0.929 | < 4.70

Cell Line | AUC (TW-37) | pIC50 (TW-37) | AUC (Bicalutamide) | pIC50 (Bicalutamide) | AUC (KIN001-270) | pIC50 (KIN001-270) | AUC (Nilotinib) | pIC50 (Nilotinib) | AUC (T0901317) | pIC50 (T0901317) | AUC (MP470) | pIC50 (MP470)
SNU-61 (large intestine, adherent) | 0.922 | < 5.30 | 0.979 | < 5.00 | 0.984 | < 4.70 | 0.985 | < 5.70 | 0.982 | < 4.99 | 0.936 | < 4.70
SNU-407 (large intestine, adherent) | 0.572 | 6.29 | 0.969 | < 5.00 | 0.961 | < 4.70 | 0.959 | < 5.70 | 0.978 | < 4.99 | 0.659 | 5.43
QGP-1 (pancreas, adherent) | 0.953 | < 5.30 | 0.975 | < 5.00 | 0.972 | < 4.70 | 0.978 | < 5.70 | 0.978 | < 4.99 | 0.831 | < 4.70
TE-4 (oesophagus, adherent) | 0.486 | 6.54 | 0.968 | < 5.00 | 0.976 | < 4.70 | 0.985 | < 5.70 | 0.982 | < 4.99 | 0.923 | < 4.70
SNU-C5 (large intestine, adherent) | 0.725 | 5.84 | 0.984 | < 5.00 | 0.983 | < 4.70 | 0.975 | < 5.70 | 0.973 | < 4.99 | 0.932 | < 4.70
NCC021 (kidney, adherent) | 0.731 | 5.79 | 0.983 | < 5.00 | 0.91 | < 4.70 | 0.985 | < 5.70 | 0.978 | < 4.99 | 0.909 | < 4.70
Hey (ovary, adherent) | 0.482 | 6.55 | 0.971 | < 5.00 | 0.978 | < 4.70 | 0.908 | < 5.70 | 0.978 | < 4.99 | 0.368 | 6.26
OC-314 (ovary, adherent) | 0.411 | 6.73 | 0.985 | < 5.00 | 0.958 | < 4.70 | 0.991 | < 5.70 | 0.986 | < 4.99 | 0.951 | < 4.70
RCC-FG2 (kidney, adherent) | 0.573 | 6.28 | 0.963 | < 5.00 | 0.972 | < 4.70 | 0.974 | < 5.70 | 0.978 | < 4.99 | 0.936 | < 4.70
YH-13 (glioma, adherent) | 0.388 | 6.82 | 0.985 | < 5.00 | 0.973 | < 4.70 | 0.974 | < 5.70 | 0.986 | < 4.99 | 0.962 | < 4.70
Hs746T (stomach, adherent) | 0.666 | 5.97 | 0.954 | < 5.00 | 0.919 | < 4.70 | 0.955 | < 5.70 | 0.364 | 6.63 | 0.122 | > 7.11
OV-56 (ovary, adherent) | 0.456 | 6.62 | 0.984 | < 5.00 | 0.937 | < 4.70 | 0.988 | < 5.70 | 0.989 | < 4.99 | 0.987 | < 4.70
SNU-81 (large intestine, adherent) | 0.741 | 5.70 | 0.964 | < 5.00 | 0.974 | < 4.70 | 0.78 | 5.95 | 0.979 | < 4.99 | 0.851 | < 4.70
OACM5-1 (oesophagus, semi-adherent) | 0.937 | < 5.30 | 0.984 | < 5.00 | 0.866 | < 4.70 | 0.985 | < 5.70 | 0.913 | < 4.99 | 0.925 | < 4.70
RCC-MF (kidney, adherent) | 0.48 | 6.57 | 0.974 | < 5.00 | 0.965 | < 4.70 | 0.959 | < 5.70 | 0.935 | < 4.99 | 0.631 | 5.49
SK-GT-4 (oesophagus, adherent) | 0.583 | 6.25 | 0.979 | < 5.00 | 0.982 | < 4.70 | 0.95 | < 5.70 | 0.971 | < 4.99 | 0.974 | < 4.70
FLO-1 (oesophagus, adherent) | 0.543 | 6.37 | 0.945 | < 5.00 | 0.948 | < 4.70 | 0.974 | < 5.70 | 0.969 | < 4.99 | 0.926 | < 4.70
